From PubChem BioAssay AID463173 (ICCB-Longwood Screening Facility, Harvard Medical School, 2010)
In all, about 52,000 compounds went through this assay and about 1,700 (3.3%) were called active. Cut-off read from the data, not from the text of the source: active = survival mostly below about 52% (no sharp cut-off); inactive = mostly above about 56%. The list shows a part of the results.

Each molecule was assayed on Wild type (assay: S. aureus survival, RN4220 and DeltatarO strains – OD600, teichoic acid synthesis inhibitors, primary screen (AID 463173)). Settings: S. aureus RN4220 wild type/DeltatarO growth, OD600, 18 h, active compounds read low, screened at 18.75 µg/mL (by protocol).
In the case of `Cc1cc(C)cc(N(C)S(=O)(=O)c2nnc(NC(=O)COc3ccc(C)c(C)c3)s2)c1`, the survival is reported as inactive: 39%.
`CCOCCCNC(=O)c1c(NC(=O)Cc2coc3c(C)c(C)ccc23)sc2c1CCC2` was tested, and the survival was inactive: 87%.
With `CC(=O)c1ccc(NC(=O)c2cccc(NC(=O)N3CCSc4ncccc43)c2)cc1` the survival was inactive: 55%.
In the case of `COc1cc(OC)c(NC(=O)COc2ccccc2-c2nnc(-c3ccccc3)o2)cc1Cl`, the survival is reported as inactive: 87%.
`COC(=O)c1cc(C)nc2c1c(=O)nc(SCc1cc(C)ccc1C)n2C1CC1` was tested, and the survival was inactive: 76%.
`CCCN(Cc1cc2cc(C)ccc2[nH]c1=O)C(=O)c1cccc(Cl)c1` was tested, and the survival was inactive: 91%.
`CCOC(=O)c1cc(-c2ccc(/C=C(\C#N)C(N)=C(C#N)C#N)o2)ccc1Cl` was tested, and the survival was inactive: 136%.
For `Cc1c(Cl)cccc1NC(=O)CN1C(=O)c2ccccc2Sc2ncccc21`, the survival was inactive: 92%.
`Cc1cccc(C(=O)NC2(C(F)(F)F)N=C(c3ccccc3)N(Cc3ccccc3)C2=O)c1` (centres undefined) was tested, and the survival was inactive: 91%.
In the case of `CCc1ccccc1Nc1nn2c(=O)c3ccc(C(=O)NCCc4ccccc4)cc3nc2s1`, the survival is reported as inactive: 68%.
`O=C(CSc1nc2ccccc2n1CC(=O)Nc1ccc(F)cc1F)Nc1ccc(F)cc1` was tested, and the survival was inactive: 72%.
`Cc1ccc(-c2c(CN3CCN(c4cc(Cl)ccc4C)CC3)csc2C)cc1` was tested, and the survival was inactive: 92%.
`O=C(CSc1nnc(-c2ccco2)c(-c2ccco2)n1)N1c2ccccc2Sc2ccc(Cl)cc21` was tested, and the survival was inactive: 107%.
`CC(=O)N1CCc2c(sc3c2c(=O)n(-c2ccccc2Cl)c(=O)n3C)C1` was tested, and the survival was inactive: 78%.
In the case of `CCn1c(C)cs/c1=N\C(=S)Nc1ccccc1C`, the survival is reported as inactive: 105%.
For `COCCCN1CCc2nc(SCC(=O)Nc3ccc(C)c(Cl)c3)[nH]c(=O)c2C1`, the survival was inactive: 90%.
In the case of `CCn1c(=O)c2cc(C(=O)NCCc3cccc(C)c3)sc2c2ccccc21`, the survival is reported as inactive: 81%.
`CCOc1ccc2c(c1)c(=O)c(S(=O)(=O)c1ccc(C)cc1)cn2CC(=O)Nc1ccc(C)cc1` was tested, and the survival was inactive: 98%.
`COc1ccc(-n2c(SCc3nc(-c4ccc(C)cc4)no3)nnc2-c2ccncc2)cc1` was tested, and the survival was inactive: 77%.
`CNS(=O)(=O)c1cn(CC(=O)Nc2ccc(F)cc2F)cc1S(=O)(=O)NC` was tested, and the survival was active: -3%.
For `Cc1ccc(N2CC(c3nnc(Cc4ccc(Cl)cc4)o3)CC2=O)cc1` (centres undefined), the survival was inactive: 37%.
In the case of `COc1nc(Nc2ccc(C)cc2)nc(NC2CCCC2)n1`, the survival is reported as inactive: 125%.
`CCCCNc1sc(S(=O)(=O)CC)nc1S(=O)(=O)c1ccc(C)cc1` was tested, and the survival was inactive: 82%.
With `CC(=O)Nc1cc(C(=O)NCc2ccccc2)ccc1Sc1ccc(C)cc1` the survival was inactive: 78%.
With `CCc1ccccc1NC(=O)CSc1nnc(-c2cc(OC)c(OC)c(OC)c2)o1` the survival was inactive: 109%.
With `Cc1cccc(N2CCN(C(=O)Cn3c(=O)c4cccn4c4ccc(F)cc43)CC2C)c1` (centres undefined) the survival was inactive: 110%.
`CCN(c1ccc(OC)cc1)S(=O)(=O)c1c(C(=O)N2CCCCCC2)c(C)n(C)c1C` was tested, and the survival was inactive: 69%.
With `COc1ccc(N2CCN(CC(O)COc3ccccc3C(C)(C)C)CC2)cc1` (centres undefined) the survival was active: -3%.
In the case of `Cc1ccc(CNC(=O)C(C(C)C)N2Cc3ccccc3C2=O)cc1` (centres undefined), the survival is reported as inactive: 80%.
For `Cc1cccc(C(=O)Nc2ccc(-c3nc4ccccc4s3)c(C)c2)c1`, the survival was inactive: 73%.
In the case of `CCCCn1nnnc1SCC(=O)NCc1ccccc1`, the survival is reported as inactive: 103%.
With `O=C(NC1CCCCC1)c1ccc(Cn2c(SCc3cccc(F)c3)nc3cccnc32)cc1` the survival was inactive: 88%.
With `CN(C(=O)CSc1cn(CC(=O)N2CCCCCC2)c2ccccc12)c1ccccc1` the survival was inactive: 88%.
`O=C(CCc1nc(-c2ccccc2F)no1)Nc1cccc(C(F)(F)F)c1` was tested, and the survival was inactive: 64%.
`Cc1ccc(CC(=O)N(Cc2nc(-c3ccc(C)cc3)no2)C(C)C)cc1` was tested, and the survival was active: -1%.
`Cc1ccc(C)c(N2CCN(C(=O)c3cccc(-n4c(C)nc5cccnc54)c3)CC2)c1` was tested, and the survival was inactive: 85%.
For `Cc1nn(-c2ccccc2)c(OC(=O)c2ccc(Br)cc2)c1S(=O)(=O)c1ccccc1`, the survival was inactive: 111%.
For `CCOc1ccc(NC(=O)Cn2c(=O)n(CCc3ccccc3)c(=O)c3c4c(sc32)CN(C(C)=O)CC4)cc1`, the survival was inactive: 117%.
With `CCc1ccc(NC(=O)CSC2=Nc3ccccc3C3=NC(CCC(=O)NCc4ccccc4OC)C(=O)N23)cc1` (centres undefined) the survival was inactive: 65%.
For `CCOCCCNC(=O)c1cnc2sc(N3CCCCCC3)nn2c1=O`, the survival was inactive: 68%.
With `CCOc1ccc(OCC)c(NC(=O)c2cc(C)nc3c2c(C)nn3-c2cccc(Cl)c2C)c1` the survival was inactive: 78%.
`Cn1c(=O)c2sccc2n2c(CCCC(=O)Nc3ccc(F)cc3F)nnc12` was tested, and the survival was inactive: 146%.
For `O=C(COc1ccc(Cl)cc1)Nc1cc(-c2ccccc2)no1`, the survival was inactive: 83%.
In the case of `COc1ccc2c(c1)c1c(c(=O)n(-c3ccccc3C)c(=O)n1Cc1ccccc1C)n2C`, the survival is reported as inactive: 75%.
For `COc1ccc(OC)c(NC(=O)CN2C(=O)CC(c3ccco3)Sc3ccccc32)c1` (centres undefined), the survival was inactive: 76%.
In the case of `Cc1cc2nn(-c3ccc(Cl)cc3)nc2cc1NC(=O)C(C)C`, the survival is reported as inactive: 127%.
In the case of `COCCCNc1ncnc2c1c(-c1ccccc1)cn2-c1ccc(C)c(Cl)c1`, the survival is reported as inactive: 80%.
In the case of `CCn1c(CN2CCN(c3cccc(Cl)c3)CC2)nc2c1c(=O)[nH]c(=O)n2C`, the survival is reported as inactive: 78%.
For `CCc1cccc2c(=O)c(C(=O)N3CCCC3)c[nH]c12`, the survival was inactive: 103%.
With `C=CCN(CC=C)C(=S)Nc1ccc2nc(C)c(C)nc2c1` the survival was inactive: 110%.
In the case of `COc1ccc(CNC(=O)c2cc3ccccn3n2)c(OC)c1`, the survival is reported as inactive: 70%.
`CCCCN(CC)C(=O)Cn1c(=O)n(-c2ccc(OCC)cc2)c(=O)c2c3c(sc21)CCC3` was tested, and the survival was inactive: 92%.
In the case of `O=C(c1ccc2c(c1)OCO2)c1cn(Cc2ccc(F)cc2)c2ccccc2c1=O`, the survival is reported as inactive: 75%.
With `CCOC(=O)c1ccc2c(c1)[nH]c(=S)n2CC` the survival was inactive: 109%.
For `Cn1nc(C(=O)N2CCN(c3ccccc3)CC2)c2c1-c1ccccc1SC2`, the survival was inactive: 86%.
For `CCCCOc1ccc(CNC(=O)Cn2ncn3c(cc4cc(F)ccc43)c2=O)cc1`, the survival was inactive: 89%.
For `O=C(O)c1ccc(-c2cccc(Cl)c2)o1`, the survival was inactive: 104%.
In the case of `Cc1ccc(C2CCN(C(=O)c3cnn(-c4ccccc4Cl)c3C3CCN(C(=O)OC(C)(C)C)CC3)C2)cc1` (centres undefined), the survival is reported as inactive: 60%.
With `COc1cc(OC)c(C2C=C(C(=O)O)Nc3ncnn32)cc1OC` (centres undefined) the survival was inactive: 90%.
For `CCCOC(=O)c1c(NC(=O)c2nc3ncccn3n2)sc(C(=O)OCC)c1C`, the survival was inactive: 92%.
In the case of `CC(=O)c1cccc(-n2c(=O)c3c4c(sc3n(Cc3ccccc3Cl)c2=O)CN(C(C)=O)CC4)c1`, the survival is reported as inactive: 88%.
For `COc1ccccc1CNC(=O)c1cn(C)c2ccc(S(=O)(=O)N3CCC(C)CC3)cc2c1=O`, the survival was inactive: 87%.
`O=C(COc1ccc(S(=O)(=O)NCc2ccccc2)cc1)NCc1ccco1` was tested, and the survival was inactive: 117%.
For `Cc1c(F)cccc1NC(=O)C1CCCN1S(=O)(=O)c1ccc(F)cc1` (centres undefined), the survival was inactive: 83%.
For `O=C(CCN1C(=O)CSC1=O)Nc1ccccc1`, the survival was inactive: 106%.
For `CCn1c(=N)c(C(N)=O)cc2c(=O)n3ccccc3nc21`, the survival was inactive: 122%.
With `Cc1ccc2[nH]cc(C(c3ccccc3)c3cccs3)c2c1` (centres undefined) the survival was inactive: 25%.
In the case of `COc1cc(OC)c(NC(=O)c2ccc3nc(C(C)C)oc3c2)cc1Cl`, the survival is reported as inactive: 88%.
In the case of `Cc1ccc(C(=O)Nc2cccc(C(=O)OCc3cc(=O)n4c5c(sc4n3)CCCC5)c2)cc1`, the survival is reported as inactive: 79%.
In the case of `Cc1ccc(NC(=O)C2CCCN(S(=O)(=O)c3cccc4cccnc34)C2)cc1Cl` (centres undefined), the survival is reported as inactive: 87%.
With `CC1=C(C#N)C(=O)NC(=O)/C1=C\c1ccc(-c2ccc(S(N)(=O)=O)cc2)o1` the survival was inactive: 116%.
For `COc1ccc(N2CCN(S(=O)(=O)c3c(C)nc4scc(C)n4c3=O)CC2)cc1`, the survival was inactive: 78%.
`Cc1cc(C)c(NC(=O)CSc2nc(C)cc(C)c2C#N)c(C)c1` was tested, and the survival was inactive: 108%.
In the case of `Cc1ccc(C)c(NC(=O)N2CC=C(c3c[nH]c4ccccc34)CC2)c1`, the survival is reported as inactive: 71%.
For `O=C(CN1Cc2ccccc2C1=O)Nc1cc(F)ccc1F`, the survival was inactive: 55%.
`O=C(/C(=N/O)n1cncn1)c1ccc(Cl)cc1Cl` was tested, and the survival was inactive: 99%.
With `Cc1cccc(N(C)C(=O)C(Cc2ccccc2)NS(=O)(=O)c2cccc3nsnc23)c1` (centres undefined) the survival was inactive: 73%.
`COc1ccc(Nc2ccc3cc(S(=O)(=O)N4CCCC4)ccc3n2)cc1Cl` was tested, and the survival was inactive: 75%.
In the case of `Clc1c(-c2nnc(-c3ccc(N4CCOCC4)cc3)o2)sc2ccccc12`, the survival is reported as inactive: 103%.
With `O=C(O)/C=C/c1ccc(S(=O)(=O)N(CCO)CCO)cc1` the survival was inactive: 91%.
`COc1ccccc1OCC(=O)N(Cc1ccc(N(C)C)cc1)CC1CCCO1` (centres undefined) was tested, and the survival was inactive: 96%.
`CCOc1ccc(-n2c(SCC(=O)Nc3ccccc3OC)nc3c(oc4ccccc43)c2=O)cc1` was tested, and the survival was inactive: 84%.
For `CC(=O)c1ccc(NC(=O)C2CCN(S(=O)(=O)c3ccc4c(c3)CCCN4C(=O)C3CCC3)CC2)cc1`, the survival was inactive: 74%.
In the case of `Cc1ccc2oc(=O)c3cnn(CC(=O)N(C)c4ccc(F)cc4)c3c2c1`, the survival is reported as inactive: 90%.
With `CCc1ccccc1NC(=O)CN(Cc1ccccc1)S(=O)(=O)c1ccc2nc(C)sc2c1` the survival was inactive: 74%.
With `COc1ccc(N2CCN(C(=O)Cc3c(C(=O)O)c(C)cn3C)CC2)cc1` the survival was active: 14%.
For `CCOC(=O)c1c(NC(=O)CCCOc2ccc(C(C)(C)C)cc2)sc2c1CCC2`, the survival was active: 7%.
In the case of `CC(C)=CC(=O)Nc1nnc(-c2ccccc2)s1`, the survival is reported as inactive: 106%.
In the case of `COc1ccc(-n2nc3ccc(NC(=O)COc4ccc(C)c(C)c4)cc3n2)cc1`, the survival is reported as inactive: 70%.
